Reference: the supplement of paper PMC3334620
The full ranking holds about 33,000 sequences; the median of “E-score (-0.5 to 0.5)” is about -0.036, and the highest 2% start at about 0.37. The list shows a part of the results.

What follows are sequences tested against T1, Yer064c (UniProt P40041) (assay: PBM E-score (8-mer binding enrichment) (E-score (-0.5 to 0.5)); higher = stronger / more preferred TF binding; most listed sequences are background and not binding sites). Conditions: protein concentration: 200 nM; construct: GST-full length.
T1 sequence: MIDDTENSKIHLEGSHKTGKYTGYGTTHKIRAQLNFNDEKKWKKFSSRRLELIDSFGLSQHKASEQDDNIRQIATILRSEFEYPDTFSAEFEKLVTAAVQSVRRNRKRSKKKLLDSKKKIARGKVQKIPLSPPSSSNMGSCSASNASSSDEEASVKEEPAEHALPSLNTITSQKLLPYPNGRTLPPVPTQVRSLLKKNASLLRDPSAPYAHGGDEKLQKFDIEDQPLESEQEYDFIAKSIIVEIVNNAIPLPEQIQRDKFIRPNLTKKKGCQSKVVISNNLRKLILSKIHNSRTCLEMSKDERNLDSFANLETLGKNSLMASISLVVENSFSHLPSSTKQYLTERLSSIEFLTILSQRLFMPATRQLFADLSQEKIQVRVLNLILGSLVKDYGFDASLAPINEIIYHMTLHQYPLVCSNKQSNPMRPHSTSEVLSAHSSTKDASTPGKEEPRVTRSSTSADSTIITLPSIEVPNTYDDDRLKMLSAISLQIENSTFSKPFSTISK
In short: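 For each ungapped eight-base word taken together with its reverse complement, the Universal PBM Analysis Suite assigned an E-score. Binding data came from GST-tagged yeast transcription factors, applied at about 100-200 nM, on universal all-10-mer Agilent arrays made double-stranded by primer extension. Fluorescent anti-GST marked bound protein, and scans were normalised with masliner.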

First: GGAAATCC
Second: GACGACGA
The “PBM E-score” value of the first is lower: -0.253 for the first, 0.00788 for the second.

Going from AAAAACCA to CATGTGAG, the “PBM E-score” value rises from 0.144 to 0.16.

Going from GCGATAAC to CCGTATGC, the “PBM E-score” value falls from -0.135 to -0.167.

First: AACCTAAG
Second: CAGAAGGA
The “PBM E-score” value of the first is higher: -0.141 for the first, -0.151 for the second.

Compared with GCGCGACC, GTCCATGA is higher in “PBM E-score” value: -0.122 for the first, 0.174 for the second.

Compared with AACAGATG, CAGTTAAA is higher in “PBM E-score” value: -0.043 for the first, 0.049 for the second.

Compared with AGCCCTCG, TTCTTAAA is higher in “PBM E-score” value: -0.0897 for the first, -0.013 for the second.

First: AAACAAAA
Second: TACCTAGA
The “PBM E-score” value of the first is lower: -0.0535 for the first, 0.00516 for the second.

Compared with CCCGCAAA, AACTAGGG is lower in “PBM E-score” value: -0.0773 for the first, -0.172 for the second.

First: ACAAAAAA
Second: CTCGCCTA
The “PBM E-score” value of the first is higher: 0.143 for the first, -0.0213 for the second.

First: CACTGTCA
Second: CGCGAGAA
The “PBM E-score” value of the first is lower: -0.0833 for the first, -0.0631 for the second.

Going from CAGGAAAA to AGCCTCAT, the “PBM E-score” value rises from -0.194 to -0.0884.

First: ATCTCATC
Second: AAGGACTT
The “PBM E-score” value of the first is higher: 0.0658 for the first, 0.0394 for the second.

First: CATGGTTA
Second: AAACTCTC
The “PBM E-score” value of the first is higher: 0.273 for the first, -0.172 for the second.

Compared with CGAACCCA, AGTGTGAG is higher in “PBM E-score” value: -0.147 for the first, 0.211 for the second.

Going from CTGTACGA to CGCCACCG, the “PBM E-score” value falls from 0.0227 to -0.162.

Compared with CAAATCCA, ATTGGCGA is higher in “PBM E-score” value: -0.00143 for the first, 0.0225 for the second.

Compared with GTTTAGGA, AAGGGTCT is lower in “PBM E-score” value: -0.219 for the first, -0.276 for the second.

Going from CTTGGATA to ACCAGTAG, the “PBM E-score” value falls from 0.0191 to 0.0136.

First: AATCACCT
Second: AGAGCGGA
The “PBM E-score” value of the first is higher: 0.438 for the first, -0.0749 for the second.

First: AGGACGTC
Second: AGCAGAGC
The “PBM E-score” value of the first is higher: -0.127 for the first, -0.137 for the second.

Compared with AGCATCTC, CCTCTAAA is higher in “PBM E-score” value: -0.169 for the first, -0.0503 for the second.

Going from ACAATGCC to ATAAAGGG, the “PBM E-score” value rises from -0.27 to -0.14.

First: GCCTTGCA
Second: GCACAAAA
The “PBM E-score” value of the first is lower: -0.187 for the first, 0.0474 for the second.

Going from GACTGTAC to CTCGCAAA, the “PBM E-score” value falls from 0.205 to 0.0465.

Compared with GTCCCTAA, ACCCTCTC is lower in “PBM E-score” value: -0.137 for the first, -0.189 for the second.

First: CACCATCG
Second: CCGATTCG
The “PBM E-score” value of the first is lower: -0.191 for the first, 0.174 for the second.

Compared with ACGGTCAA, CCTGGGAA is lower in “PBM E-score” value: 0.00367 for the first, -0.0645 for the second.

Going from ATAACCCG to AACGATAA, the “PBM E-score” value rises from -0.0584 to 0.0946.

Compared with CATTACGA, CGTCATCC is lower in “PBM E-score” value: -0.0452 for the first, -0.131 for the second.

Compared with AAAGGATC, CCTGATCA is higher in “PBM E-score” value: -0.13 for the first, 0.0132 for the second.

Compared with CACTCCTA, GGGTACTA is higher in “PBM E-score” value: -0.0701 for the first, 0.141 for the second.

Going from AACGTTAG to TCCGCACA, the “PBM E-score” value falls from -0.0386 to -0.0533.

Compared with ATAAAAAA, CGTGGCGA is lower in “PBM E-score” value: 0.112 for the first, -0.16 for the second.

First: CGGTTCAC
Second: CTAAATTC
The “PBM E-score” value of the first is lower: -0.0311 for the first, 0.101 for the second.

Going from AAGACGTA to AAGCGGAT, the “PBM E-score” value falls from 0.00511 to -0.286.

First: GACTAAGA
Second: ATGAGGTA
The “PBM E-score” value of the first is higher: 0.444 for the first, 0.0789 for the second.

Compared with ATCAGTTA, CTTTTCTA is lower in “PBM E-score” value: 0.24 for the first, -0.0532 for the second.

Going from ACGATGAT to AGGTGGAT, the “PBM E-score” value falls from 0.286 to -0.0934.

First: CTTCTAAA
Second: TAGACTGA
The “PBM E-score” value of the first is lower: 0.00304 for the first, 0.122 for the second.

Going from GTTCGGCA to CGATCCAG, the “PBM E-score” value falls from -0.0843 to -0.238.

First: ACTCACCA
Second: ACGCTGAG
The “PBM E-score” value of the first is higher: 0.388 for the first, 0.0382 for the second.

Compared with AAGACCCC, AAAATACC is higher in “PBM E-score” value: -0.169 for the first, -0.0129 for the second.

Compared with TAATGGAA, CGAATCAC is higher in “PBM E-score” value: -0.119 for the first, 0.4 for the second.

Going from AAGGAACC to AAAAGTAT, the “PBM E-score” value rises from -0.145 to 0.0634.

First: ATTTGAGA
Second: GTGTTCTA
The “PBM E-score” value of the first is higher: 0.115 for the first, -0.0316 for the second.

First: ACGGCGTA
Second: AGCAAGCT
The “PBM E-score” value of the first is higher: 0.0284 for the first, -0.166 for the second.
